{"source": "PubChem BioAssay AID504832", "about": "(National Center for Advancing Translational Sciences (NCATS), 2011)", "note": "The whole screen tested about 310,000 compounds, of which about 18,000 (5.8%) were called active. Inconclusive means that the source gave no clear call. Such entries were picked first, then a sample of the others. Calls come from the whole dose curve; as a rule, active = well fitted inhibition curve with a large enough effect; inconclusive = small, poorly fitted or top-dose-only effect, or another doubt; inactive = no such curve, though single readings can be large or run the other way. No potency is given beside an inconclusive call; the fits are too rough. % is set by controls: 0 for no effect and ±100 for the full control effect; potency is the fitted concentration of half-maximal effect; tags give direction and shape of the fitted curve."}
{"assay": "Primary qHTS for delayed death inhibitors of the malarial parasite plastid, 48 hour incubation", "conditions": "P. falciparum luciferase growth in erythrocytes; series mostly up to 28.7 µM; activity change, negative = inhibition: at the top concentration", "summary_of_the_method": "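Firefly luciferase activity from engineered P. falciparum reports growth; inhibitors lower the luminescent signal. Cultures contained 2% hematocrit erythrocytes at 0.1% final parasitemia.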"}
{"compound": "O=C(CSCc1ccccc1)NNC(=S)Nc1cccc(Cl)c1Cl", "activity change, negative = inhibition": "inactive: 6.17%"}
{"compound": "COc1cccc(COC(=O)Cc2ccc(S(=O)(=O)N3CCOCC3)s2)c1OC", "Potency": "inconclusive [inhibitor, single point]"}
{"compound": "CCc1ccc(NC(=O)CS(=O)CC(=O)Nc2ccc(-n3cnnn3)c(C)c2)cc1", "note": "(stereo not given)", "activity change, negative = inhibition": "inactive: 7.94%"}
{"compound": "O=c1nccc(N/N=C/c2ccccc2O)[nH]1", "Potency": "active: 9.28 µM"}
{"compound": "CCO[C@@H]1OC(C(=O)N2CCCCCCC2)=C[C@H](c2csc3ccccc23)[C@H]1CCCO", "Potency": "active: 8.28 µM"}
{"compound": "C=CCN(c1cccc(C(F)(F)F)c1)S(=O)(=O)c1cccc(C(=O)OCC(=O)NC)c1", "Potency": "inconclusive [inhibitor, single point]"}
{"compound": "C=CC[N+](C)(C)c1ccc(CCC(=O)CCc2ccc([N+](C)(C)CC=C)cc2)cc1", "Potency": "active: 0.147 µM"}
{"compound": "CC(C)C(=O)NC(c1ccc([N+](=O)[O-])cc1)c1c(O)ccc2ccccc12", "note": "(stereo not given)", "Potency": "active: 1.85 µM"}
{"compound": "CN(C)C1(c2nnnn2CCOC(=O)Nc2ccc(Cl)cc2)CCCCC1", "Potency": "inconclusive [inhibitor, single point]"}
{"compound": "NC(N)=NN=C1c2ccccc2-c2ccccc21", "Potency": "inconclusive [inhibitor, single point]"}
{"compound": "O=C1OCCN1C(=O)[C@H]1[C@H](c2ccc(Cl)cc2)C(c2cccc(Cl)c2)=NN1c1ccccc1", "Potency": "inconclusive [inhibitor, single point]"}
{"compound": "Cc1cccc(Cn2c(=O)c3c(nc4n3CCCN4Cc3ccccc3)n(C)c2=O)c1", "Potency": "active: 13.1 µM"}
{"compound": "CC1CC(C)CN(CCCNC(=O)c2ccc3c(c2)ncn3C2CCCC2)C1", "note": "(stereo not given)", "Potency": "inconclusive [inhibitor, single point]"}
{"compound": "Cc1ccccc1OCc1nnc(SCc2cc(=O)[nH]c3ccccc23)n1-c1ccccc1", "Potency": "inconclusive [inhibitor, partial curve]"}
{"compound": "CCNc1nc(NC(C)C)nc(SCCOC(=O)c2ccccc2)n1", "activity change, negative = inhibition": "inactive: -11.8%"}
{"compound": "O=C(COc1ccc(Br)cc1)N(Cc1ccccc1)c1ccccn1", "Potency": "inconclusive [inhibitor, partial curve, poor fit]"}
{"compound": "CC1=C(C(=O)Nc2ccc(C(=O)NCCC(C)C)cc2)SCCO1", "activity change, negative = inhibition": "inactive: -11.7%"}
{"compound": "Nc1nc(N)nc(-c2cc(O)ccc2O)n1", "Potency": "inconclusive [inhibitor, partial curve]"}
{"compound": "O=C(N/N=C/c1cccc(NC(=O)c2ccc(Cl)cc2)c1)c1ccc(O)cc1", "activity change, negative = inhibition": "inactive: 138%"}
{"compound": "COc1ccc(-c2nc3cc(C)ccn3c2NCc2ccc3c(c2)OCO3)cc1", "Potency": "inconclusive [inhibitor, single point]"}
{"compound": "CCCCn1c2ccccc2c2nnc(SCCN3CCCCC3)nc21", "Potency": "inconclusive [inhibitor, single point]"}
{"compound": "CCCCCNC(=O)c1cccnc1SCC(=O)Nc1ccccc1OC", "Potency": "inconclusive [inhibitor, partial curve]"}
{"compound": "CC(=O)N1c2c(cc(Br)cc2S(=O)(=O)N2CCOCC2)CC1C", "note": "(stereo not given)", "Potency": "inconclusive [inhibitor, partial curve, poor fit]"}
{"compound": "O=C(Nc1ccc(OCc2ccccc2Cl)cc1)c1cccnc1", "Potency": "inconclusive [inhibitor, partial curve, poor fit]"}
{"compound": "CCOc1cc(Br)ccc1S(=O)(=O)NCc1ccccc1", "activity change, negative = inhibition": "inactive: 19.9%"}
{"compound": "CCN(c1ccccc1)S(=O)(=O)c1cc(C(=O)Nc2ccc(F)c(F)c2)ccc1F", "Potency": "inconclusive [inhibitor, single point]"}
{"compound": "COC(=O)c1[nH]c2ccc(C)cc2c1NS(=O)(=O)c1ccc(F)cc1", "Potency": "inconclusive [inhibitor, partial curve, poor fit]"}
{"compound": "O=C(Nc1ccc(Br)cc1)c1ccc(F)c(S(=O)(=O)NCc2cccs2)c1", "Potency": "inconclusive [inhibitor, single point]"}
{"compound": "CCOC(=O)N1CCN(C(=O)CN(c2cccc(C)c2)S(=O)(=O)c2ccccc2)CC1", "Potency": "inconclusive [inhibitor, single point]"}
{"compound": "CCCC(/C=C/c1ccc(OC(C)=O)cc1)=C1/c2ccccc2C(=O)N1c1ccccc1", "Potency": "inconclusive [inhibitor, partial curve, poor fit]"}
{"compound": "COc1ccc(N2C3=C(C(=O)CC(C)(C)C3)C(c3cnn(C)c3)C3=C2CC(C)(C)CC3=O)cc1", "Potency": "active: 7.38 µM"}
{"compound": "O=C(CCSc1ccccc1)NNC(=O)c1ccccc1F", "activity change, negative = inhibition": "inactive: 27.5%"}
{"compound": "COc1ccc2ccccc2c1CN1CCN(C(=O)c2ccccc2)CC1", "Potency": "inconclusive [inhibitor, single point]"}
{"compound": "COc1nc(Nc2ccc([N+](=O)[O-])cc2)nc(NC(C)C)n1", "Potency": "inconclusive [inhibitor, single point]"}
{"compound": "O=C(COC(=O)c1cccs1)Nc1ccccc1C(F)(F)F", "Potency": "inconclusive [inhibitor, single point]"}
{"compound": "COc1ccccc1N1CCN(C(=O)c2cccc(S(=O)(=O)N3CCCCCC3)c2)CC1", "Potency": "active: 13.1 µM"}
{"compound": "c1ccc(C(c2nnnn2C2CCCC2)N2CCN(c3ccccc3)CC2)cc1", "note": "(stereo not given)", "Potency": "active: 13.1 µM"}
{"compound": "O=C(NCCCn1ccnc1)c1ccc2ccccc2c1", "activity change, negative = inhibition": "inactive: 1.49%"}
{"compound": "O=C1COc2cc(S(=O)(=O)NCc3ccco3)c(Cl)cc2N1", "Potency": "inconclusive [inhibitor, single point]"}
{"compound": "COc1cccc(NC(=S)NC(C)c2ccc(OC)c(OC)c2)c1", "note": "(stereo not given)", "Potency": "inconclusive [inhibitor, full curve]"}
{"compound": "CC1(C)Cc2noc(N)c2C(C)(C)N1OC(=O)c1cccs1", "Potency": "inconclusive [inhibitor, single point]"}
{"compound": "NC(=O)c1ccccc1NC(=O)Nc1cccc(Cl)c1Cl", "activity change, negative = inhibition": "inactive: 11.2%"}
{"compound": "O=C(Nc1ccncc1)Nc1cccc(C(F)(F)F)c1", "Potency": "inconclusive [inhibitor, partial curve]"}
{"compound": "C=CC[N+]1(C)C2CCC1CC(O)C2", "note": "(stereo not given)", "Potency": "inconclusive [inhibitor, single point]"}
{"compound": "COc1ccc(S(=O)(=O)N2CCCC(C(=O)NCCN3CCOCC3)C2)cc1C", "note": "(stereo not given)", "Potency": "inconclusive [inhibitor, partial curve, poor fit]"}
